In all, about 52,000 compounds went through this assay and about 1,700 (3.3%) were called active. Rule as the data show it: active = survival mostly below about 52% (no sharp cut-off); inactive = mostly above about 56%. The list shows a part of the results.

The test system of the assay is Wild type. The experiment in a line: growth inhibition of S. aureus wild type versus tarO mutant, primary screen, teichoic acid synthesis inhibitors, RN4220, OD600 (AID 463173). Particulars: S. aureus RN4220 wild type/DeltatarO growth, OD600, 18 h, hits give low values, screened at 18.75 µg/mL (by protocol).
Take `COc1ccc(-c2nc3nc(C)cc(Nc4cccc(C(F)(F)F)c4)n3n2)cc1`: the survival was inactive: 93%. As for `COc1ccc(NC(=O)COc2ccc(S(=O)(=O)NC3CCCCC3)cc2)c(OC)c1`, the figure is inactive: 66%. As for `O=C(CCCc1nc(-c2ccccc2)no1)Nc1cc(C(F)(F)F)cc(C(F)(F)F)c1`, the figure is inactive: 27%; as for `O=C(Nc1nnc(S(=O)(=O)N2CCCCC2)s1)c1ccc(F)cc1`, inactive: 90%.

For `Cc1cc(C)c(Cn2c3ccccc3c3cnn(CC(=O)NCc4ccc(Cl)cc4)c(=O)c32)c(C)c1`, the survival is inactive: 133%. As for `O=C1CN(c2ccccc2)C(=Nc2ccccc2)S1`, the figure is inactive: 101%.

Consider `Cc1noc(Cn2c(=O)c3ccccc3n(CC(=O)Nc3ccc(F)cc3F)c2=O)n1`, for which the survival was inactive: 69%. As for `NC(=O)c1oc2ccccc2c1NC(=O)c1ccccc1`, the figure is inactive: 99%; as for `CCOc1ccc(NC(=O)c2cc(S(=O)(=O)N3CCCC3)c[nH]2)cc1`, inactive: 113%; as for `CC1=C(C(=O)Nc2ccccc2C)C(c2ccco2)n2ncnc2N1` (stereo not drawn), inactive: 78%. Turning to `Cc1sc(-n2cccc2)c(C(C)NC(=O)Nc2ccccc2Cl)c1C` (stereo not drawn), the survival was inactive: 77%. For `COC(=O)c1ccccc1NC(=O)c1cc2c(s1)-c1ccccc1OC2`, the survival was inactive: 53%.

In the case of `O=C(CN(c1cc(C(F)(F)F)ccc1Cl)S(=O)(=O)c1ccccc1)NCCc1ccccc1`, the survival was inactive: 74%. Turning to `COc1ccc(-c2c(C#N)c(SCC(=O)Nc3ccc(Br)cc3)nc(C)c2C(=O)Nc2ccccc2)cc1`, the survival is inactive: 105%. For the molecule `CCOc1ccc(CCNC(=O)c2ccc3c(c2)N(Cc2ccccc2)C(=O)c2ccccc2S3=O)cc1OCC` (stereo not drawn), the survival was inactive: 83%.

With `O=C(CSc1nc(-c2ccccc2)c2ccccc2n1)Nc1ccc(F)cc1`, the survival was inactive: 94%. On to `Cc1cc(C)c(S(=O)(=O)NCCc2cc3ccc(C)cc3[nH]c2=O)c(C)c1`, for which the survival is inactive: 62%.

As to `CC1=C(C(=O)N2CCCCC2)C(c2cccc(Cl)c2)n2c(nc3ccccc32)N1` (stereo not drawn), the survival is inactive: 73%.

For `COc1ccc(NC(=O)CN2C(=O)CCc3cc(S(=O)(=O)N4CCOCC4)ccc32)c(OC)c1`, the survival is inactive: 66%. As for `CCOc1ccccc1NC(=O)Cn1c(=O)n(-c2ccccc2)c(=O)c2c1c1cc(C)ccc1n2C`, the figure is inactive: 84%; as for `COc1ccc(-c2cn3c(n2)sc2cc(C(=O)NCCCN4CCCCC4)ccc23)cc1`, inactive: 81%. As for `O=C(c1cc2nc(-c3ccccc3)cc(C(F)(F)F)n2n1)N1CCCC1`, the figure is inactive: 111%; as for `CCN(C(=O)CSc1nnc(-c2cc3occc3n2C)n1-c1ccccc1C)c1cccc(C)c1`, inactive: 69%. In the case of `CCc1ccc(CNC(=O)CSc2cc(=O)n(CC)c3ccccc23)cc1`, the survival was inactive: 79%. As for `CCNC(=O)c1c(C)oc2ncn(C)c(=O)c12`, the figure is inactive: 119%; as for `CCN(CC)C(=O)c1cnn(-c2ccc(F)cc2)c1-n1cccc1`, inactive: 45%. `COc1ccc(N2CCN(C(=O)c3ccc4c(=O)n(CCc5ccc(OC)c(OC)c5)c(=O)[nH]c4c3)CC2)cc1`: the survival was inactive: 126%. As for `CCc1nn(CC(=O)N(CC)Cc2ccccc2)c(=O)c2cc3occc3n12`, the figure is inactive: 70%; as for `COc1ccc(-c2nc(N)n(C(=O)c3ccco3)n2)cc1`, inactive: 111%. As for `Cc1nn(CCCC(=O)Nc2cc(C(F)(F)F)ccc2Cl)c(=O)c2c1sc1ccccc12`, the survival is inactive: 91%. As for `CCOc1ccc(-n2c(=O)c3c4c(sc3n(Cc3cccc(C)c3)c2=O)CCCC4)cc1`, the figure is inactive: 68%; as for `Clc1ccc2nc(Nc3ccccc3Cl)nc(-c3ccccc3)c2c1`, inactive: 76%; as for `CCc1ccc(NS(=O)(=O)c2ccc3[nH]cc(C(=O)NCc4ccc(C)cc4)c(=O)c3c2)cc1`, inactive: 67%. As for `CCOCCCNC(=O)C1CCN(c2cc(C)nc3c(-c4ccc(Cl)cc4)c(C)nn23)CC1`, the figure is inactive: 85%; as for `CCc1ccc(NCc2cc3cc4c(cc3n(CC(=O)Nc3ccccc3Cl)c2=O)OCO4)cc1`, inactive: 89%; as for `Cc1ccc(-c2cn3c(n2)sc2cc(C(=O)NC4CCCc5ccccc54)ccc23)cc1` (stereo not drawn), inactive: 101%. As for `CC(C)(C)c1ccc(CN(Cc2ccco2)Cc2nnnn2C2CCCCC2)cc1`, the figure is inactive: 113%; as for `C/C(=N\NC(N)=O)C1CC(Cc2ccccc2)C(=O)O1` (stereo not drawn), inactive: 101%. `CCOc1ccccc1NC(=O)Nc1cc(C(=O)NCc2ccc(C)cc2)ccc1N1CCCC1`: the survival was inactive: 92%. For the molecule `COc1ccc(OC)c(NC(=O)c2c(NCc3ccc(OC)c(OC)c3)sc3c2CCC3)c1`, the survival was inactive: 75%. As to `O=C(Nc1ccc(Br)cc1F)C(NS(=O)(=O)c1cccc2nsnc12)c1ccccc1` (stereo not drawn), the survival is inactive: 81%. In the case of `Cc1ccc(NC(=O)c2cc3c(-c4ccccc4)nn(-c4ccccc4)c3s2)cc1`, the survival was inactive: 66%.

As for `CCn1c(SCc2ccc(C)cc2)nnc1-c1ccc(S(=O)(=O)N2CCOCC2)cc1`, the survival is inactive: 104%.

For `COc1ccc(CNC(=O)c2cc3c(-c4ccccc4F)nn(C)c3s2)cc1`, the survival is inactive: 64%. As for `O=C(C1CCCCC1)N1CCC(n2nnc3ccccc32)CC1`, the figure is inactive: 98%. As for `COc1ccc(NC(=O)Cn2c(=O)n(CC(=O)NCCc3ccccc3)c(=O)c3ccccc32)cc1`, the figure is inactive: 105%. As for `Cc1c(C(=O)NCc2ccccc2)sc2nc[nH]c(=O)c12`, the figure is inactive: 78%; as for `Cc1ccc(CCNc2nc3c(S(=O)(=O)c4ccccc4)nnn3c3ccsc23)cc1`, inactive: 73%; as for `COc1cc(-c2noc(-c3ccc(N(C)C)c([N+](=O)[O-])c3)n2)cc(OC)c1OC`, inactive: 84%. For `O=C(Nc1cc(-c2nc3ccccc3o2)ccc1Cl)c1ccc(Br)o1`, the survival is inactive: 65%.

With `COc1cccc(Cc2nc3ccccc3nc2SCC(=O)N2CCN(c3ccccc3)CC2)c1`, the survival was inactive: 101%. Consider `O=C(Cn1c(-c2cccs2)cc2cc(F)ccc21)N1CCN(c2cccc(Cl)c2)CC1`, for which the survival is inactive: 65%. In the case of `CCC(=O)N(Cc1nc2ccccc2c(=O)[nH]1)Cc1ccccc1OC`, the survival is inactive: 94%. As to `Cc1ccccc1Cn1c2ccccc2c2cnn(CC(=O)NCCCc3ccccc3)c(=O)c21`, the survival is inactive: 87%.

Turning to `N#Cc1ccc(CSCC(=O)NN=C2CCCC2)cc1`, the survival is inactive: 103%.

In the case of `COc1cccc2c1cc1c(=O)n(CC(=O)O)nc(C)n12`, the survival is inactive: 87%. As to `CC(=O)Nc1ccc(S(=O)(=O)NC2(C(F)(F)F)NC(=O)N(c3ccccc3F)C2=O)cc1` (stereo not drawn), the survival was inactive: 76%.

For the molecule `CCC1CN(C(=O)Nc2cccc(OC)c2)c2ccccc2O1` (stereo not drawn), the survival is inactive: 99%. As for `COc1ccc2c(c1)c1c(c(=O)n(-c3ccc(F)c(Cl)c3)c(=O)n1CC(N)=O)n2C`, the figure is inactive: 72%; as for `CCOc1ccc(-c2c(C)nn3c(C)c(C(=O)NCCc4ccccc4)cnc23)cc1OCC`, inactive: 53%; as for `Cn1nc(C(=O)N2CCN(c3ccc(Cl)cc3)CC2)c2c1-c1ccccc1S(=O)(=O)C2`, inactive: 66%. For the molecule `COc1ccccc1CNC(=O)CSc1cc(=O)n(C)c2ccccc12`, the survival was inactive: 83%. Regarding `COc1ccc(-c2cc(C(F)(F)F)nc(NCc3ccc(Cl)cc3)n2)cc1`, the survival is active: -3%. As for `CCOc1ccc(Nc2sc(C(=O)c3ccc4c(c3)OCO4)c(N)c2S(=O)(=O)c2ccc(C)cc2)cc1`, the figure is inactive: 73%; as for `O=C1CC(c2nnc(Cc3cccc(Cl)c3)o2)CN1c1ccccc1` (stereo not drawn), inactive: 113%; as for `CCOc1ccc(C2C(C(=O)Nc3ccccc3OC)=C(C)Nc3c(C(=O)Nc4cccc(C)c4)cnn32)cc1` (stereo not drawn), inactive: 78%. As for `CN(C)CCNc1ncnc2ccccc12`, the figure is inactive: 107%; as for `Cc1ccc2c(c1)cc1c(=O)n(Cc3ccc(Cl)cc3)nc(C)n12`, inactive: 97%. As for `COc1cccc(-c2cc(C(=O)Nc3ccc(Br)c(C)c3)[nH]n2)c1`, the figure is inactive: 85%. As to `COc1ccc(-n2c(=O)c3ccc(C(=O)NCc4ccc(C)cc4)cc3n(Cc3cccc(Cl)c3)c2=O)cc1`, the survival was inactive: 74%.

On to `COc1ccc(CN(Cc2ccco2)C(=O)c2ccccc2F)cc1`, for which the survival was inactive: 82%. In the case of `Cc1cccc(C)c1NS(=O)(=O)c1ccc2c(c1)[C@H]1C=CC[C@H]1[C@@H](c1ccc(Cl)cc1)N2`, the survival is inactive: 69%. As to `CCn1c(CC2C(=O)Nc3ccccc32)nc2ccccc2c1=O` (stereo not drawn), the survival is inactive: 81%. For `CC1CCN(c2oc(-c3cccs3)nc2S(=O)(=O)c2ccccc2)CC1`, the survival was inactive: 24%. As to `CCCC(=O)Nc1c(C)nn(C(=O)CCC)c1C`, the survival is inactive: 108%.

For `O=C1C(c2ccccc2)NC(=S)N1C1CCCCC1` (stereo not drawn), the survival is inactive: 115%.

Take `CCOc1ccc(CNC(=O)C2CCN(c3nc4ccccc4nc3C(F)(F)F)CC2)cc1OC`: the survival is inactive: 73%.

With `CCc1c(C)sc2c1CCN(Cc1ccccc1C#N)C2c1ccccc1` (stereo not drawn), the survival is inactive: 124%. In the case of `COc1ccc(CCNC(=O)c2cnc3sc(N4CCOCC4)nn3c2=O)cc1`, the survival is inactive: 80%.

For `O=c1[nH]c2cc3[nH]c(=O)c(=O)c3cc2c1=O`, the survival is inactive: 106%. For the molecule `CCOC(=O)c1cnc2c(ccc3ccccc32)c1Nc1cccc(Cl)c1`, the survival is inactive: 23%. Turning to `Cc1nn(C)c2c1c(-c1ccccc1)cc(=O)n2Cc1ccc(F)cc1`, the survival is inactive: 124%. As for `COc1ccc(-n2nc3ccc(NC(=O)c4cccc(OCCC(C)C)c4)cc3n2)cc1`, the figure is inactive: 135%; as for `COc1ccc(-n2cc(-c3ccc4c(c3)OCO4)n(CC(=O)Nc3cc(Cl)ccc3C)c2=O)cc1`, inactive: 89%. As for `CCOC(=O)c1cnc2ccc(OC)cc2c1Nc1ccc(OCc2ccccc2Cl)cc1`, the figure is active: 6%. On to `Cc1ccc(NC(=O)CCC(=O)N2Cc3ccccc3Oc3ncccc32)cc1Cl`, for which the survival was inactive: 82%. With `COc1ccccc1CNC(=O)C(NS(=O)(=O)c1ccc2c(c1)CCN2C(C)=O)C(C)C` (stereo not drawn), the survival is inactive: 75%. For `COc1ccc(CNC(=O)c2cnc(N3CCCC3)nc2C)c(OC)c1`, the survival is inactive: 70%.

Values taken from PubChem BioAssay AID463173 (ICCB-Longwood Screening Facility, Harvard Medical School, 2010).
